# PMC12595022
# The chains behind the UniProt entries cited, without tags or fusion partners. Where a name states a change or a piece, a line headed by the entry shows the natural chain unless it says otherwise.
# UniProt Q12778: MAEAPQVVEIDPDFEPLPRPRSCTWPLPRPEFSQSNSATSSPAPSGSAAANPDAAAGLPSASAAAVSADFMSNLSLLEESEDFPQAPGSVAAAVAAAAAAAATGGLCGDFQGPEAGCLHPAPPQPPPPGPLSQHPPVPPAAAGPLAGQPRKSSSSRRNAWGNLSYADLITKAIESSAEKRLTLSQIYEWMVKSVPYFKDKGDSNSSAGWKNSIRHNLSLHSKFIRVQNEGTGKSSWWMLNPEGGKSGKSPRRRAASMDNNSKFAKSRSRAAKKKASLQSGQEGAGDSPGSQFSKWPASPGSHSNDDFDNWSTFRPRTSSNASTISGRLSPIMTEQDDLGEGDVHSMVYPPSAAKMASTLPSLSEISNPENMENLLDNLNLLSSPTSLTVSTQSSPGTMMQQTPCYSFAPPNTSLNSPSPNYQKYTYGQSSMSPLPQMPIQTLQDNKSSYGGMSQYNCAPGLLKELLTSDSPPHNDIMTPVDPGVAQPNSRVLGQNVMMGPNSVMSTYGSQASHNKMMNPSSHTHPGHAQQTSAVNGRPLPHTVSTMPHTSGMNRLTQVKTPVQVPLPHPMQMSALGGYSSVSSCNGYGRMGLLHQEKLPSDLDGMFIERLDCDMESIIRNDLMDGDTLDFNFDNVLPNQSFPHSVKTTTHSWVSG
# No constants are given. Whether binding was seen depends on the method and setting. In cells and extracts the contact can be indirect. Some entries that bind do so weakly or less than the wild type.
# T1: MDMX (co-immunoprecipitation with FOXO1, Fig. S3D) (UniProt O15151)
# T1 sequence: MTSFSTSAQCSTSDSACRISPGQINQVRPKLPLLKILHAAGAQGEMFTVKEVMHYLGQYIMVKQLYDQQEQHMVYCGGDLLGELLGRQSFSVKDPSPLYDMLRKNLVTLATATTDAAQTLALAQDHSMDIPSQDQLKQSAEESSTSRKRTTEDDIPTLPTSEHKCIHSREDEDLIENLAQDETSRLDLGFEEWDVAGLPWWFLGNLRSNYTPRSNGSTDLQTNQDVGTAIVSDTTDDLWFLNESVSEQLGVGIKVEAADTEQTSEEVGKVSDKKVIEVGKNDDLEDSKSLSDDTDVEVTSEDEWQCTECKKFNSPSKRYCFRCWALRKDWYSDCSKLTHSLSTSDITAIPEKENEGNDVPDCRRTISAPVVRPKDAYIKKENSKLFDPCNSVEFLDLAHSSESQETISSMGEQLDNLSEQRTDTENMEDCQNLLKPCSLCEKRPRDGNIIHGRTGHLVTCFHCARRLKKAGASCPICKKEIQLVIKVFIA
# T2: MDMX (endogenous, 293T) (human (endogenous in 293T)) (UniProt O15151)
# T2 sequence: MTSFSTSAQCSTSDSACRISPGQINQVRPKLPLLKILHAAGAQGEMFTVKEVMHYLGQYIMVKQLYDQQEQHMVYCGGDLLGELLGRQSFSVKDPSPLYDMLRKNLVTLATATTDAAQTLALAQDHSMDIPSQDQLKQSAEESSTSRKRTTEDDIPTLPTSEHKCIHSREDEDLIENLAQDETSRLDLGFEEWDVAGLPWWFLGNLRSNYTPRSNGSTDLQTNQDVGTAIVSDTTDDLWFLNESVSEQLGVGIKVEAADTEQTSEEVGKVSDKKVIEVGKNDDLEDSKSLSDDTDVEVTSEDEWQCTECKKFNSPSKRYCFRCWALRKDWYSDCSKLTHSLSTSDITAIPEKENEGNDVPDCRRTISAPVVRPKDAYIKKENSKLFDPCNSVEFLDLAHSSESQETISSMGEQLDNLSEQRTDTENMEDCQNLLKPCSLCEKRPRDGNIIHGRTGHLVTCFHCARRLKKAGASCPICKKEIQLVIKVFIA
# T3: MDMX-SG (UniProt O15151)
# T3 sequence: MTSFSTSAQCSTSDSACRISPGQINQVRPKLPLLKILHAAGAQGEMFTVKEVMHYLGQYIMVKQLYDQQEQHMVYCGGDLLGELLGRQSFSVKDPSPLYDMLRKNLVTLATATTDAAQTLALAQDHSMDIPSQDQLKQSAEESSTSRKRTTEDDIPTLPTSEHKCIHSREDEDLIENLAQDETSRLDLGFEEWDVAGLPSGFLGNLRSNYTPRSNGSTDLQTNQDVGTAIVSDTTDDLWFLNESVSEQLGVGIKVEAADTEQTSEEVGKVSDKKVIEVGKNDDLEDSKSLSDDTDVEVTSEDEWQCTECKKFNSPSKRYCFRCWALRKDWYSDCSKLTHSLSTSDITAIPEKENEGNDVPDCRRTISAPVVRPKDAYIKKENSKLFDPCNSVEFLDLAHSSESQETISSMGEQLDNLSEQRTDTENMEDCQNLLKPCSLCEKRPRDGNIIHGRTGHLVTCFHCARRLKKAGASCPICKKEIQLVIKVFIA
# T4: MDMX-101-361 (UniProt O15151)
# T4 sequence: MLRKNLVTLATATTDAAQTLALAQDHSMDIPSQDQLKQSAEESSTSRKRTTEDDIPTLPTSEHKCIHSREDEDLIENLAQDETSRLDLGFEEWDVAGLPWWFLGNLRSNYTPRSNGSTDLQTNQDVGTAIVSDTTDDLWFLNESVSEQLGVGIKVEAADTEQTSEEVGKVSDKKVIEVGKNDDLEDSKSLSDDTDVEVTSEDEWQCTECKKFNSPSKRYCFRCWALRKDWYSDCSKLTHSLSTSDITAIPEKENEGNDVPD
# T5: full-length MDMX (UniProt O15151)
# T5 sequence: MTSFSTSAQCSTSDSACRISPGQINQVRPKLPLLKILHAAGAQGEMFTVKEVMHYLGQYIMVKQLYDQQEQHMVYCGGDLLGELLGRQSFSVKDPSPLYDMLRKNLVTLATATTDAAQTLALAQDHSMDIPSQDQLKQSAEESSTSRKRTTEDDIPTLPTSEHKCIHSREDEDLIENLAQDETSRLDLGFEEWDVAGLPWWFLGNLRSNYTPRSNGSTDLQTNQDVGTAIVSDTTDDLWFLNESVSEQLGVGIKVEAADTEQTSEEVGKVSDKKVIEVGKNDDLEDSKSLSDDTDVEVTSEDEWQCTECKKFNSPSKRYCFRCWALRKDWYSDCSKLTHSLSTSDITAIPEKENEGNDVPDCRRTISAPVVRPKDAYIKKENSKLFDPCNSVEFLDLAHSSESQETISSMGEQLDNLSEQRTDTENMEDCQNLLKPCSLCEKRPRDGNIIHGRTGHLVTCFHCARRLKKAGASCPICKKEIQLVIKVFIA
# T6: MDMX-S367A (UniProt O15151)
# T6 sequence: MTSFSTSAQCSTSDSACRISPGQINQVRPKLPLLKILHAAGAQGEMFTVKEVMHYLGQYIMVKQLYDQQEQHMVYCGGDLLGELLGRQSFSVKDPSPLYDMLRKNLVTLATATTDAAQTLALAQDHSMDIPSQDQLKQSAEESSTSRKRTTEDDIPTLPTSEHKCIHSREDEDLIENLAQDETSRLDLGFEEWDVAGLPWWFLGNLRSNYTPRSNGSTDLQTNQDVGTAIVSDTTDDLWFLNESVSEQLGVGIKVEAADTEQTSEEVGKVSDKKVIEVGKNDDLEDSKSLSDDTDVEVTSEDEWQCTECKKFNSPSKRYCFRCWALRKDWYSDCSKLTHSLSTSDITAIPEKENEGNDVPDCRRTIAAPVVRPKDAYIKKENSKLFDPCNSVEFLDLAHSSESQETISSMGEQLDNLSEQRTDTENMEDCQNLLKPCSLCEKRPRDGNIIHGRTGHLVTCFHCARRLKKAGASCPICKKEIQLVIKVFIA
# T7: MDMX-1-361 (UniProt O15151)
# T7 sequence: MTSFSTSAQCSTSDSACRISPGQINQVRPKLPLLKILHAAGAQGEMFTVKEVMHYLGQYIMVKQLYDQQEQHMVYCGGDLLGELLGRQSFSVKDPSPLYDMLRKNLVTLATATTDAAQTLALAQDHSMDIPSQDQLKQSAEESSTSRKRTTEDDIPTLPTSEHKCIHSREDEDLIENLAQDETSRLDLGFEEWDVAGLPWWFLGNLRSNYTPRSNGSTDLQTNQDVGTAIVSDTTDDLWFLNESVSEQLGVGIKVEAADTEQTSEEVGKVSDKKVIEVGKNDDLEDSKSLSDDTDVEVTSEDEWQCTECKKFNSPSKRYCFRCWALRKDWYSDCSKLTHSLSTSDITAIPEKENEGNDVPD
# T8: MDMX-101–490 (UniProt O15151)
# T8 sequence: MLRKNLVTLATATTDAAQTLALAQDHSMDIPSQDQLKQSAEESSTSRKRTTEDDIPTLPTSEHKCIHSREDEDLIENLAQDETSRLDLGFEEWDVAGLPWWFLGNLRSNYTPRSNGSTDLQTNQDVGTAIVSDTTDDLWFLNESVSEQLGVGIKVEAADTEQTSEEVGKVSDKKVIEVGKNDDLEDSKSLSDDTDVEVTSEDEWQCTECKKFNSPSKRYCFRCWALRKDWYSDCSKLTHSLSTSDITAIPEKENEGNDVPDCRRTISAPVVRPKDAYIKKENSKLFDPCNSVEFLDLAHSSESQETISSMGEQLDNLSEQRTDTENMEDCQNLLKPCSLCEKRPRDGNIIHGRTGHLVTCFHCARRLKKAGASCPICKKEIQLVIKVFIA
# Tests used:
# [1] = target: T1, MDMX (co-immunoprecipitation with FOXO1, Fig. S3D); test: co-IP; co-immunoprecipitation of MDMX and FOXO1 (Fig. S3D); cells not given; lysate with specific antibody and protein A/G beads at 4 °C overnight, Western blot
# [2] = target: T2, MDMX (endogenous, 293T) (human (endogenous in 293T)); test: co-IP; 293T cells, endogenous or transfected proteins (Fig. 5D, S4B, 5F, 6C); specific antibody and protein A/G beads at 4 °C overnight, Western blot
# MDMX-SG = target: T3, MDMX-SG; test: as above
# MDMX-101-361 = target: T4, MDMX-101-361; test: as above
# full-length MDMX = target: T5, full-length MDMX; test: as above
# MDMX-S367A = target: T6, MDMX-S367A; test: as above
# [3] = target: FOXO1 (ectopic expression, 293T) (UniProt Q12778); test: as above
# MDMX-1-361 = target: T7, MDMX-1-361; test: as above
# MDMX-101–490 = target: T8, MDMX-101–490; test: as above
# [4] = target: FOXO1 (transfected, Huh7) (UniProt Q12778); test: co-IP; Huh7 cells co-transfected with MDMX and FOXO1 (Fig. 5C); specific antibody and protein A/G beads at 4 °C overnight, Western blot
molecule,measurement,setting,value
"FOXO1 (co-immunoprecipitation with MDMX, Fig. S3D) (from UniProt Q12778 1-655)",binding,[1],no binding
"14-3-3γ (endogenous, 293T) (protein, UniProt P61981 1-247) MVDREQLVQKARLAEQAERYDDMAAAMKNVTELNEPLSNEERNLLSVAYKNVVGARRSSWRVISSIEQKTSADGNEKKIEMVRAYREKIEKELEAVCQDVLSLLDNYLIKNCSETQYESKVFYLKMKGDYYRYLAEVATGEKRATVVESSEKAYSEAHEISKEHMQPTHPIRLGLALNYSVFYYEIQNAPEQACHLAKTAFDDAIAELDTLNEDSYKDSTLIMQLLRDNLTLWTSDQQDDDGGEGNN",binding,[2],binds
"14-3-3γ (293T, Fig. 5F and 6C) (protein, UniProt P61981 1-247) MVDREQLVQKARLAEQAERYDDMAAAMKNVTELNEPLSNEERNLLSVAYKNVVGARRSSWRVISSIEQKTSADGNEKKIEMVRAYREKIEKELEAVCQDVLSLLDNYLIKNCSETQYESKVFYLKMKGDYYRYLAEVATGEKRATVVESSEKAYSEAHEISKEHMQPTHPIRLGLALNYSVFYYEIQNAPEQACHLAKTAFDDAIAELDTLNEDSYKDSTLIMQLLRDNLTLWTSDQQDDDGGEGNN",binding,MDMX-SG,binds
same,binding,MDMX-101-361,no binding
same,binding,full-length MDMX,binds
same,binding,MDMX-S367A,no binding
same,binding,[3],binds
same,binding,MDMX-1-361,no binding
same,binding,MDMX-101–490,binds
"14-3-3γ (Huh7) (protein, UniProt P61981 1-247) MVDREQLVQKARLAEQAERYDDMAAAMKNVTELNEPLSNEERNLLSVAYKNVVGARRSSWRVISSIEQKTSADGNEKKIEMVRAYREKIEKELEAVCQDVLSLLDNYLIKNCSETQYESKVFYLKMKGDYYRYLAEVATGEKRATVVESSEKAYSEAHEISKEHMQPTHPIRLGLALNYSVFYYEIQNAPEQACHLAKTAFDDAIAELDTLNEDSYKDSTLIMQLLRDNLTLWTSDQQDDDGGEGNN",binding,[4],binds
"14-3-3γ (exogenous, 293T) (protein, UniProt P61981 1-247) MVDREQLVQKARLAEQAERYDDMAAAMKNVTELNEPLSNEERNLLSVAYKNVVGARRSSWRVISSIEQKTSADGNEKKIEMVRAYREKIEKELEAVCQDVLSLLDNYLIKNCSETQYESKVFYLKMKGDYYRYLAEVATGEKRATVVESSEKAYSEAHEISKEHMQPTHPIRLGLALNYSVFYYEIQNAPEQACHLAKTAFDDAIAELDTLNEDSYKDSTLIMQLLRDNLTLWTSDQQDDDGGEGNN",binding,full-length MDMX,binds
